Among the data in article PMC4892509, “Binding of the Fkh1 Forkhead Associated Domain to a Phosphopeptide within the Mph1 DNA Helicase Regulates Mating-Type Switching in Budding Yeast” (PLoS Genetics, 2016) are binding values, retold here.

Chains of the proteins cited; added tags and fusions are not shown. Residues count along the entry.
UniProt P40562, residues 762-993: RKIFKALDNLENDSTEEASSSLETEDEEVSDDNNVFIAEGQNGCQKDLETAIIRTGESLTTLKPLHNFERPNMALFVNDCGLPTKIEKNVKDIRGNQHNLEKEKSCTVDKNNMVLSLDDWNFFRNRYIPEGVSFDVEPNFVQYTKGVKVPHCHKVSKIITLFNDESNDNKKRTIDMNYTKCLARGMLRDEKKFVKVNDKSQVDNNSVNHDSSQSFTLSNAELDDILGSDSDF

Residue numbers refer to the chain shown, from its start. Results are given in words; binding and its absence hold for the method and conditions named. Some results given as binding are weak or reduced against the parent protein; the word gives no strength.

In experiment [1] the target is T1, GBD-Fkh1-FHA (amino acids 50–202) R80A (S. cerevisiae) (UniProt P40466).
T1 sequence: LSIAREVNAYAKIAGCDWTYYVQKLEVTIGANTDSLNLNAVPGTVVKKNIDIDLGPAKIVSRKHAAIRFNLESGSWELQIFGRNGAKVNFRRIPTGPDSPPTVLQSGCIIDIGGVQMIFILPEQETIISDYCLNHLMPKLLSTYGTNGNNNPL
Nature of the experiment: two-hybrid; directed assays in strain PJ69-4A: GBD-Fkh1 forms as bait, GAD fusions as prey; reporter genes HIS3 and ADE2, growth on media lacking histidine or both adenine and histidine, compared with the GAD alone. A general note: In a reporter assay the amount or activity of a reporter protein is the signal.

The target of experiment [2] is T2, GBD-Fkh1-FHA (amino acids 50–202) (S. cerevisiae) (UniProt P40466).
T2 sequence: T1 sequence with A31R
The experiment is described as above.

For “GAD-Mph1-Ct (amino acids 762–993) (from UniProt P40562 762-993) (domain or fragment)”, the binding entry in experiment [1] is “no binding”; in experiment [2], “binds”.
